The source gives no read counts; variants with many changes may rest on few reads.

First the molecules themselves.
B1: OR4K15 (parent)
chain: GUUAACGGUCAUAGGCCAUGGAAACUAGGAGCACCAUUUCGCUGCCAGUGAAGAAAUGAACAAAGAAAAUCUGGGCCAGGCAGGCAUCAAAAGAAAUAGUCUUGCGCUCAACCAGAAAGUCUGUAAUCAUUUUAAGGGUA

The data set covers variants of B1. Put plainly: self-cleavage, relative activity (ratio to wild type); higher = more cleavage; in vitro, sequencing; the parent is a self-cleaving ribozyme.
Regarding A60G A62G A92G G136A, the self-cleavage is 0.7.
Next, U57C A62G A69U: 1.52; U57C A63U A68G A110C: 0.08.
Next, A56G U120C U124A: 0.25.
On to U57C A64G A95U U122A, for which the self-cleavage worked out at 1.66.
Regarding A59U A64C U120A U131C, the self-cleavage is 0.53.
Turning to A60G U87A A96G, the self-cleavage was found to be 1.83.
In the case of A60G A67U A69G, the self-cleavage was found to be 1.45.
To A60U A116U U127C belongs 0.04.
Next, A56G U108C U120C: 0.01; A56U U97C U132C: 0.41; A62G U102C U120C: 2.39.
Next, A60G A68C A134G: 0.74.
In the case of A59U U100C A129G, the self-cleavage was found to be 2.82.
To A62G A67G U132C belongs 0.13; to A60U U103A A129C, 0.6; to A60U A63G A86G A91G, 0.08.
Next, A56U A64C A90G: 1.4; A62G A117G U122C: 1.25.
Next, A62G C76U A117G U131C: 0.07.
A60G A64G A91G A118G: the self-cleavage was determined as 0.23.
With A59G A60U A82G U102C, the self-cleavage was 1.24.
Next, A60G C77U A135G: 2.92.
Turning to U57C A118U A125G, the self-cleavage came to 0.18.
Next, A60U A62G A63G: 1.4.
With A62G A90G A135G, the self-cleavage is 0.79.
On to A59G G74A U100C A140G, for which the self-cleavage was 0.35.
As to A59G A96G U130C U132C, the self-cleavage came out at 0.92.
Next, A59G U102C U139C: 2.46; A59G U72A U108C C121U: 0.02; U57C A86G U120C A135G: 0.42.
Next, A59G U70C A135G: 0.13; A60G U108C A118U: 0.
Next, A59G A78G U127A: 0.19; U57C A90U G123A: 1.47.
As to A60G A90U U124C, the self-cleavage was 1.28.
For U57G U122C A126U, the self-cleavage came out at 0.61.
Regarding A60C A86G U122C U130A, the self-cleavage is 0.82.
To A59G A96G A111G A117U belongs 0.03.
Turning to A60G U72A C88A A118G, the self-cleavage was found to be 0.08.
To A60G A78U A129G belongs 0.27; to A59G A86G U120C G123A A126G, 0.54; to A59G G75A A96G, 0.21.
In the case of U57C A59G U70C, the self-cleavage came to 0.24.
To U57C U103G A125G belongs 0.01; to A62G A96G A110C, 0.21; to A62G A95U U108A A134G, 0.
Next, U57C A64G A89G A96G A111G: 0.02; U57A A96G A118G U132C: 0.36; U57C C105U A114G: 0.02.
To A59G A62G G79U U102A belongs 0.13; to A56U A78U A95G A129G, 0.67; to A60G G80A G138C, 0.19.
As for A62G U87G A90G A135U, the self-cleavage was found to be 0.44.
Next, A62G A92G A114U A129G U131C: 0.02; A60G U87C A114U: 0.02; A60G U70C A118G: 0.39.
Next, U57C A59G A94G: 2.16; A62G A110G U130C: 0.1; A59G A94G A111G: 0.02.
As for A56G U122C A126G, the self-cleavage was determined as 0.96.
As to A59G C109U A111U, the self-cleavage was determined as 0.07.
To A60G A82U U127C belongs 0.13; to A60G A62G U103C, 0.55; to A60U A116G U130C, 0.51.
To A59U A60G C113G A114G belongs 0.01.
Next, A62G A82G A140C: 0.61; A59G A78U A82G: 0.09; A59G A60G A92G: 1.47.
Consider A60G A98G A116G, for which the self-cleavage was 0.09.
Next, A60G A96G U122C: 1.28; A60G U122A G123A: 1.36.
To A59U A94G U108C A116G belongs 0.05; to A60G A78G C128A, 0.12.
Next, A60G A78U A92G U108C A116G: 0.01; A62G A95G U133C: 1.59.
In the case of A60G A82G U103C C109A, the self-cleavage came to 0.58.
Next, A59U A60G U72A A82U U131C: 0.11.
To A62G A116G G123A belongs 0.91; to U57C A82C U122A A126G, 0.07.
To A59G A117G U139A belongs 0.91; to A59G U70C A89U, 0.51.
Regarding G58A A98G A118G, the self-cleavage worked out at 0.07.
To A60G A89G A114G belongs 0.64.
Next, A60U A67G U72C C121A: 0.49; A62G A67G U70A C105A A114G: 0.02.
To U57G A92G C105A belongs 0.07.
For the variant C61U A67G A86U, the self-cleavage is 1.41.
To A59G U70A U87A A114U U122C belongs 0.01; to U57C A66U U100C, 1.77.
To U57C A118G U120A belongs 1.79; to A60G A69G A95G G115A, 0.06.
To U57A A62U A64U A94G belongs 1.17.
As to U57A A59U A126U U131C, the self-cleavage came out at 0.94.
To C61U U70A U127C belongs 0.9; to A59G A62G U132A, 1.13; to A62G A78U U103C U130C A135G, 0.01.
Next, A60U A118G U131C: 0.52; A60G A69G A95G: 1.28; A60G A63G U108A: 0.03.
Next, A60G A94U A116G: 0.62.
For A60G A68G U70C A92G U108A, the self-cleavage was 0.
Next, A60G A68G A118G: 0.68; A59G C109U A135G: 0.15.
Next, A62G A68U U127C: 0.95.
To A60U U87C G93A belongs 0.27; to U57C A66G U108A, 0.02; to A62G A66C U120C A129G, 0.96.
For A62G A110C A129G, the self-cleavage worked out at 0.09.
To G58U A89U U100C belongs 1.89.
As for A62G A89C U139A A140U, the self-cleavage turned out to be 1.08.
To A59U U102C A111G belongs 0.01.
For the variant A59G A89U U120C A135G, the self-cleavage turned out to be 0.49.
Next, A56U A117G U122C: 1.55; C61U A91G A117G: 2.1.
Next, A59G A90G U108C: 0.03; A62G A67G U72A A117U: 0.17.
Next, A59G A66G U72G A91G: 0.15.
As for U57C A110G A114C, the self-cleavage turned out to be 0.02.
Next, A62G A78C A89G A116G U132A: 0.05; U57C A64G A96G: 1.58; C61U A68G U139C: 0.72.
With A62C A67G U131C, the self-cleavage was 2.12.
To U57G C61U A118G U130C belongs 1.04; to U57C U97C U102C U108C, 0.01; to U57C C61U U131C, 0.77.
To A59G A67G A91G A117G belongs 1.86; to A60G U87C A95G, 1.43.
Next, A60U C105U U139G: 0.31; A60C U87C A111G: 0.03.
For A62G A89G U132C, the self-cleavage is 1.89.
To A59G A82U A90G A111G U120C belongs 0.01; to A59U U70A U122C, 0.63; to A60G A68G A96G A118G U130C, 0.53.
Next, A60G A66G A69G: 0.83.
Next, A60U G104A A114U U130A: 0.01; U57A A86G U103C: 1.03; A59G A94G A135G: 1.51.
For A59G C61U U87A U108C, the self-cleavage came out at 0.03.
Next, G58A A67G A117G U132C: 2.1; A60G A64G A78C U100A A116G: 0.01.
To A62C A64G A68G C81U A129G belongs 0.17; to A59U A98G U139C, 0.62.
To U57C U102A A134G belongs 0.43.
Turning to A59G A91G C101A U132A, the self-cleavage was determined as 0.03.
To G58A A69U G83A A117G belongs 2.27; to A59G U70C A82U, 0.15; to A59U A62G G106C, 0.
Next, A59G A60G U100C U122C: 2.96; A62G A68U U132A: 1.09; A56U U57G G58A A60C C61A A64G G65A U122C: 0.66.
As to U57A U87A A91G, the self-cleavage came out at 0.83.
Next, A59G C128A U132A: 0.9; A59G A67G G74U A116G U122C: 0.02.
Next, A59G U70C U72C A110G: 0.13.
As to A60U A68G A78G A111G A118G A125G, the self-cleavage worked out at 0.01.
Regarding U57C A111G A129G, the self-cleavage turned out to be 0.01.
In the case of A62U A63U U70C A96G, the self-cleavage was determined as 0.29.
Next, A60G A82G U87C G137A: 0.22.
Next, U57C A89U A92G U122C: 1.1; A59G A68G U70C: 0.11.
Next, A60U G75U A94G: 0.16; A60G A62G U120C: 0.48; A62G A98G A110G: 0.05.
On to A59U U87C A116G, for which the self-cleavage is 0.76.
For A62G A78G A116U, the self-cleavage came out at 0.08.
To A60U A69G U72C G115A belongs 0.04.
